Experimental data from the supplement of paper PMC12217912.
This is one part of the list. Sequences were assembled here from the parent chain. Inactive controls read about 0.05.

B1: TEV protease; numbered along this chain (parent)
chain: MGESLFKGPRDYNPISSSICHLTNESDGHTTSLYGIGFGPFIITNKHLFRRNNGTLVVQSLHGVFKVKDTTTLQQHLVDGRDMIIIRMPKDFPPFPQKLKFREPQREERICLVTTNFQTKSMSSMVSDTSCTFPSGDGIFWKHWIQTKDGQCGSPLVSTRDGFIVGIHSASNFTNTNNYFTSVPKNFMELLTNQEAQQWVSGWRLNADSVLWGGHKVFMVKPEEPFQPVKEATQL

Variants of: B1
Assay: raw area under fraction-flipped curve 0-4 h after induction (AUC4h, not background-subtracted), DNA-recorder readout of cleavage of the substrate (dimensionless); higher = more cleavage of the substrate by the protease variant
Conditions: temperature: 34 °C; time window: 0-4 h after rhamnose induction
Description: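 In vivo DNA recorder in E. coli TOP10(DE3) ΔrhaA at 34 °C. Each TEVp single-site mutant (parent TEVp 0) is paired with a single-site variant of the 7-mer TEVs (canonical ENLYFQ|S). The substrate sits between flexible linkers in a Bxb1-sfGFP-TEVs-SsrA fusion, so cleavage stabilises Bxb1 and speeds flipping of a recombination array, read by NGS. The value is the raw area under the fraction-flipped curve over 0-4 h after rhamnose induction (AUC4h), with ≥20 reads per time point. It is not background-subtracted; inactive controls average about 0.047.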
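Note: Bxb1 expression induced with 0.2% (w/v) L-rhamnose at OD600 near 0.5, cultures sampled hourly, flipped fraction per protease–substrate barcode pair counted by paired-end Illumina sequencing.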

Variant | area with substrate ENLCFQS | area with substrate ENLDFQS | area with substrate ENLHFQS | area with substrate ENLKFQS | area with substrate ENLNFQS | area with substrate ENLRFQS | area with substrate ENLEFQS | area with substrate ENLFFQS | area with substrate ENLIFQS | area with substrate ENLLFQS | area with substrate ENLMFQS | area with substrate ENLQFQS | area with substrate ENLSFQS | area with substrate ENLWFQS | area with substrate ENLVFQS | area with substrate ENLPFQS | area with substrate ENLGFQS | area with substrate ENLTFQS
S26L | 0.0556 | 0.0243 | 0.0715 | 0.0811 | 0.0579 | 0.075 | – | – | – | – | – | – | – | – | – | – | – | –
S26N | 0.0589 | 0.0593 | 0.0851 | – | 0.0692 | 0.0706 | 0.0582 | 0.0615 | 0.0676 | 0.073 | 0.0696 | 0.0562 | 0.0628 | 0.052 | – | – | – | –
S26W | 0.0661 | 0.0601 | 0.0592 | 0.0713 | 0.0651 | – | – | 0.0785 | 0.0628 | – | 0.0577 | – | 0.0632 | – | 0.0727 | – | – | –
G28D | 0.0636 | 0.0583 | 0.0609 | 0.0727 | 0.0654 | 0.0753 | 0.0619 | 0.0795 | 0.0832 | 0.0602 | – | 0.0731 | 0.0611 | 0.0688 | 0.068 | 0.0497 | – | –
L33M | 0.0716 | – | 0.0718 | 0.0596 | 0.0646 | 0.0628 | 0.0597 | 0.0685 | 0.0669 | 0.0788 | 0.0625 | 0.0642 | – | – | 0.0639 | 0.0647 | – | –
I36H | 0.0487 | 0.0485 | 0.0389 | 0.0557 | 0.0389 | – | – | 0.0404 | – | – | – | – | 0.0309 | 0.0503 | – | – | – | –
I36Y | 0.0898 | 0.0509 | 0.0409 | – | 0.051 | – | – | 0.0506 | 0.0411 | 0.0326 | – | 0.0488 | 0.0453 | – | 0.0546 | 0.042 | – | –
T44S | 0.0616 | 0.0641 | – | 0.0678 | – | – | 0.0973 | 0.0688 | 0.063 | – | – | 0.0725 | 0.0676 | – | 0.0686 | 0.0661 | 0.0675 | –
N45T | 0.0527 | 0.0521 | 0.0574 | 0.0593 | 0.0646 | 0.0625 | 0.0655 | 0.0516 | 0.0626 | 0.066 | 0.0628 | 0.0494 | 0.0624 | 0.0059 | 0.0506 | 0.0643 | 0.068 | 0.0653
H47E | 0.0642 | 0.055 | 0.0503 | 0.0701 | 0.0634 | – | 0.061 | 0.0595 | – | 0.0642 | 0.0611 | 0.0551 | 0.0486 | – | 0.0587 | – | – | 0.0766
F49M | 0.0598 | 0.0603 | 0.0673 | 0.0686 | 0.0569 | – | 0.0608 | 0.0683 | 0.0578 | 0.0542 | 0.0627 | 0.0611 | – | 0.055 | 0.0742 | 0.0618 | 0.0525 | 0.0576
N52V | 0.0546 | 0.0664 | 0.075 | 0.0556 | 0.0633 | 0.0643 | 0.0957 | 0.0707 | 0.0602 | 0.0631 | – | 0.0571 | 0.0532 | 0.0576 | 0.0517 | 0.0562 | – | –
G54Q | 0.0606 | 0.0618 | 0.0645 | 0.0639 | 0.0757 | 0.0629 | 0.0632 | 0.0703 | 0.0671 | 0.0506 | 0.0739 | 0.0924 | 0.0583 | 0.058 | – | 0.0615 | – | –
Q59I | 0.0674 | 0.0557 | 0.0708 | 0.0824 | 0.0841 | 0.0639 | – | 0.0955 | 0.0894 | 0.0757 | 0.0641 | – | 0.0576 | 0.0731 | – | 0.066 | 0.0277 | –
L77H | 0.0579 | 0.0622 | 0.0668 | 0.0699 | 0.0656 | 0.067 | 0.0592 | 0.0684 | 0.0665 | 0.0654 | 0.0722 | 0.0643 | 0.0528 | 0.036 | – | 0.0592 | 0.0701 | 0.0665
P93M | 0.0691 | 0.0553 | 0.0608 | 0.0722 | 0.0847 | – | – | 0.0762 | 0.0782 | 0.041 | 0.11 | 0.0417 | 0.0568 | – | 0.102 | – | – | –
K98A | 0.0794 | 0.0598 | 0.042 | 0.0754 | 0.0657 | 0.0817 | – | 0.0861 | 0.0751 | 0.073 | – | 0.0831 | 0.0599 | 0.071 | 0.0791 | 0.0647 | 0.0677 | –
R102H | 0.0644 | 0.0562 | 0.0456 | 0.0781 | 0.0473 | – | 0.0652 | 0.0584 | 0.0742 | – | – | 0.0741 | 0.0532 | 0.0556 | 0.0529 | 0.0482 | – | –
R106A | 0.0749 | 0.0628 | 0.0811 | 0.0754 | 0.0429 | – | 0.0787 | 0.0967 | – | – | – | 0.0805 | 0.0908 | 0.0728 | – | 0.0643 | 0.0635 | –
R109Q | 0.0805 | 0.0503 | 0.0905 | 0.063 | 0.0666 | 0.0685 | 0.0771 | 0.0813 | 0.0737 | 0.0694 | 0.0652 | 0.0463 | 0.0593 | 0.0682 | 0.0781 | 0.0419 | – | 0.0649
C111M | 0.0567 | 0.0585 | 0.042 | – | 0.0538 | 0.0741 | – | 0.0754 | 0.0819 | – | 0.0698 | 0.0687 | – | 0.0086 | – | 0.0517 | 0.0644 | –
V113G | 0.0702 | – | 0.0634 | – | 0.0603 | – | 0.0672 | 0.0754 | 0.0877 | – | – | – | – | – | – | 0.0506 | – | –
S124R | 0.0826 | 0.0687 | 0.0657 | 0.0825 | 0.0633 | 0.0844 | 0.0698 | 0.0951 | 0.101 | – | – | – | 0.0671 | – | – | – | 0.0589 | –
V126Y | 0.0744 | 0.0591 | 0.0738 | 0.0904 | 0.0748 | – | 0.0786 | 0.0848 | 0.0834 | – | 0.0668 | 0.0793 | 0.0668 | – | 0.078 | 0.0453 | – | –
S127E | 0.0835 | 0.0657 | 0.116 | 0.0727 | 0.0831 | 0.0556 | 0.066 | 0.0769 | – | – | 0.0722 | – | 0.0479 | – | 0.105 | 0.0673 | – | 0.0887
F140G | 0.054 | 0.0871 | 0.065 | – | 0.0592 | 0.0553 | 0.102 | 0.0832 | 0.0431 | 0.0592 | – | 0.0618 | 0.061 | – | – | 0.0478 | 0.0647 | –
W141P | 0.0513 | 0.061 | 0.0582 | 0.0578 | 0.0492 | 0.039 | 0.054 | 0.056 | – | – | – | – | 0.0595 | 0.0595 | 0.0521 | 0.0575 | – | –
